# Data taken from article PMC11995724, “Antibiotic target discovery by integrated phenotypic and activity-based profiling of electrophilic fragments” (Cell chemical biology, 2025).
# Hit rate of the full screen: of about 3,200 compounds, about 110 (3.4%) showed an effect of 50% or more. The list shows a part of the results.
# Test system: T1, V. cholerae SAD30
# T1 construct: SAD30
# Set-up: species or system S. aureus MSSA476 (TSB) or V. cholerae SAD30 (LB); 384-well bacterial growth screen at 25 uM, OD600 relative to DMSO control
# Conditions: relative growth, OD600, LB; 25 µM; inhibitor
row,SMILES,% of control remaining
1,"C=CCNC(=O)C(C#N)=Cc1sccc1C [9-P07, 2-cyano-3-(3-methylthiophen-2-yl)-N-(prop-2-en-1-yl)prop-2-enamide]",84.2284%
2,"CC(Cl)C(=O)NC(c1cccc(C(F)(F)F)c1)c1nnc[nH]1 (stereo not drawn) [7-M17, 2-chloro-N-[(4H-1,2,4-triazol-3-yl)[3-(trifluoromethyl)phenyl]methyl]propanamide]",74.2772%
3,"COC(=O)c1c(NC(=O)CCl)sc(Cl)c1-c1ccccc1 [4-E20, methyl 5-chloro-2-(2-chloroacetamido)-4-phenylthiophene-3-carboxylate]",86.6077%
4,"N#CC(=Cc1ccco1)C(=O)NCc1ccc(-c2cccnc2)cc1 [9-F16, 2-cyano-3-(furan-2-yl)-N-{[4-(pyridin-3-yl)phenyl]methyl}prop-2-enamide]",69.0007%
5,"Cc1cc(C=C(C#N)C(=O)Nc2cn[nH]c2)c(C)n1-c1ccc(F)cc1 [9-N07, 2-cyano-3-[1-(4-fluorophenyl)-2,5-dimethyl-1H-pyrrol-3-yl]-N-(1H-pyrazol-4-yl)prop-2-enamide]",66.8253%
6,"C=CC(=O)N1CCC(C(=O)N[C@H]2CCCCCC[C@H]2C(=O)OC)CC1 (racemic) [2-H06, rac-methyl (1R,2S)-2-[1-(prop-2-enoyl)piperidine-4-amido]cyclooctane-1-carboxylate]",91.1223%
7,"CC(Cl)C(=O)NCC(=O)N(C)Cc1cccnc1 (stereo not drawn) [7-P15, 2-chloro-N-({methyl[(pyridin-3-yl)methyl]carbamoyl}methyl)propanamide]",96.0846%
8,"Cc1ccc(C(=O)C(C)Cl)cc1 (stereo not drawn) [10-F20, 2-chloro-1-(4-methylphenyl)propan-1-one]",99.7467%
9,"Cc1ccc(NC(=O)C(C#N)=Cc2ccc(C)s2)cc1 [8-K13, 2-cyano-N-(4-methylphenyl)-3-(5-methylthiophen-2-yl)prop-2-enamide]",72.9436%
10,"COc1ccc(N2C(=O)C=CC2=O)c(OC)c1 [10-J15, 1-(2,4-dimethoxyphenyl)-2,5-dihydro-1H-pyrrole-2,5-dione]",26.9628%
11,"CC(Cl)C(=O)NCc1nc2cccnc2n1C (stereo not drawn) [7-O17, 2-chloro-N-({3-methyl-3H-imidazo[4,5-b]pyridin-2-yl}methyl)propanamide]",82.6037%
12,"C=CC(=O)N1CCC(C(=O)NCc2nccn2C)(c2ccccc2)CC1 [3-I10, N-[(1-methyl-1H-imidazol-2-yl)methyl]-4-phenyl-1-(prop-2-enoyl)piperidine-4-carboxamide]",96.3242%
